Measured values reported in PubChem BioAssay AID904 (National Center for Advancing Translational Sciences (NCATS), 2007).
Out of some 55,000 compounds screened, about 530 (0.96%) were called active. The inconclusive results got no clear call from the source; some entries with a clear call stand among them for comparison. Calls follow the shape of the dose curve; as a rule, active = well fitted cell-killing curve with a large enough effect; inconclusive = small, poorly fitted or top-dose-only effect; inactive = no such curve, though single readings can be large or run the other way. Potencies beside an inconclusive call are fits to weak or partial responses and may not hold up.

Experiment: qHTS Screen for Compounds that Selectively Target Cancer Cells with p53 Mutations: Cytotoxicity of p53 Null Cells at the Nonpermissive Temperature; also: nearly all actives have a fitted effect of over 50% in size;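 as to activity, negative = cell killing: 0% = DMSO only and -100% = full killing by 100 µM tamoxifen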
Conditions: H1299 p53-null (neo) cells, 39C, ATPlite viability, 24 h; activity, negative = cell killing: at 46.1 µM (top of the series)
From the text: NIH Chemical Genomics Center [NCGC] NIH Molecular Libraries Screening Centers Network [MLSCN] MLSCN Grant: 1 X01 MH079844-01 Assay Submitter (PI): Dr. SUN, YI, University of Michigan NCGC Assay Overview: Synthetic Lethal Screen for Compounds to Kill Cancer Cells with p53 Mutation. Tumor suppressor gene p53 serves as a major cellular barrier against tumorigenesis. […] The goal of this screening is to identify small molecule probes that selectively kill cancer cells with mutations in p53. This screening was carried out using two lines of H1299 lung cancer cells. The H1299-p53 A138V line express a temperature sensitive p53 mutant (p53ts) in which the mutant p53 protein (A138V) is in the mutant confirmation when grown at 39C (the nonpermissive temperature) and in the wild type conformation when grown at 32C (the permissive temperature). A H1299-neo line (p53 null) grown at both 39C and 32C were used as counter-screens to filter out false positive associated with temperature shifting. The small molecular compounds that selectively target mutant p53-containing cancer cells were selected as candidate probes for further study. A cytotoxicity assay based on the measurement of ATP contents in cells was used in this screen. Concentration-responses of all the compounds in the library collection were determined in qHTS using the cell lines and temperature conditions as above.
NCGC Assay Protocol Summary: Both the H1299-p53A138V and H1299-neo cell lines were provided by Dr.Yi Sun, a PI at the University Michigan. The cells were maintained and cultured at 37C. The resuspended frozen cells were used to plate the cells in the 1536-well assay plates at a density of 600 cells per well in 5 ul medium. The assay plates with the cells were incubated at 37C for 16 to 30 hours before the experiments. The library compounds in DMSO solution were added to the cells in assay plates and incubated 24 hours at 39C (for mutant p53 conformation) or 32C (for normal p53 conformation as control). An ATP_lite assay kit (PerkinElmer) was used to determine the cell viability. Tomaxifen (100uM) was used as the positive control for cell killing. Data were normalized to the controls for basal activity (DMSO only) and 100% killing (100uM tamoxifen). AC50 values were determined from concentration-response data modeled with the standard Hill equation. P53 assay protocol: 1. Reagent; 5 uL H1299-p53A138V or H1299-neo cell cells/well 2. Time; overnight; 37C incubation 3. Compounds; 23 nL; 5.9 nM to 46 uM 4. Controls; 23 nL; Tamoxifen 100 uM 5. Time; 24 hr; 39C incubation 6. Reagent; 3 uL; ATP_Lite reagent 7. Time; 20 min; Room Temperature 8. Detection; Luminescence; Viewlux plate reader Keywords: p53, synthetic lethal, cancer, cell viability, cytotoxicity, H1299 cell line, luminescence, MLSMR, MLSCN, NIH Roadmap, qHTS, NCGC
Potency is read from the fitted curve at half-maximal effect; tags tell the direction and shape of the fitted curve.

Row | SMILES | Potency | activity, negative = cell killing
1 | COc1ccc(-c2nn3c(-c4ccccc4C)nnc3c3ccccc23)cc1 | inconclusive: 31.6 µM [cytotoxic, single point] | –
2 | COc1ccc(Nc2nc(N)c3cc(OC)c(OC)cc3n2)cc1 | inconclusive: 17.8 µM [cytotoxic, partial curve] | –
3 | CCN(CC)CCNC(=O)c1ccc2c(=O)n3nc(Nc4ccccc4OC)sc3nc2c1 | inconclusive: 25.1 µM [cytotoxic, single point] | –
4 | O=C(Nc1ccc(N2CCOCC2)cc1)c1cccnc1 | inconclusive: 5.01 µM [cytotoxic, partial curve, poor fit] | –
5 | CCN1C(C(=O)c2ccccc2)=C(OC(=O)c2ccccc2OC)c2ccccc2S1(=O)=O | active: 12.6 µM | –
6 | CCc1ccccc1N1CC(c2nc3ccccc3n2CCCCOc2ccccc2)CC1=O (stereo not drawn) | active: 20 µM | –
7 | COc1cc(-c2nc3nc(C)cc(C)n3c2Nc2ccc(Cl)cc2)ccc1O | inconclusive: 22.4 µM [cytotoxic, single point] | –
8 | Cc1ccc2nc(COc3cccc(NC(=O)c4ccccc4Cl)c3)cc(=O)n2c1 | inconclusive: 0.02 µM [cytotoxic, full curve] | –
9 | Clc1cccc(C2=NC(c3cccs3)=Nc3ccc(Br)cc3N2)c1 | inactive | –
10 | CCN(CC)CCOC(=O)c1ccc(NC(=O)c2cc3c(s2)-c2ccccc2OC3)cc1 | inconclusive: 31.6 µM [cytotoxic, single point] | –
11 | CCOc1ccc(C2C(C(=O)Nc3ccccc3C)=C(C)Nc3nnnn32)cc1 (stereo not drawn) | inconclusive: 11.2 µM [cytotoxic, single point] | –
12 | CC(=O)CSc1nnc(-c2ccc3c(c2)OCO3)o1 | inconclusive: 10 µM [cytotoxic, single point] | –
13 | COc1ccc(C(=O)Nc2ccc3nc4c(c(Nc5ccccc5OC)c3c2)CCCC4)c(OC)c1 | inconclusive: 12.6 µM [cytotoxic, single point] | –
14 | Cc1cccc2c1-c1sc(C(=O)NCCCN3CCN(c4ccccc4F)CC3)cc1CO2 | inconclusive: 31.6 µM [cytotoxic, single point] | –
15 | Cc1ccc(-c2c(C(=O)N3CCN(c4ccc(F)cc4)CC3)oc(=O)c3ccccc23)cc1 | inactive | –
16 | O=C(CCn1c(=O)c2ccccc2n(Cc2cccc(F)c2)c1=O)NCc1ccc2c(c1)OCO2 | inconclusive: 31.6 µM [cytotoxic, single point] | –
17 | Clc1ccc(-c2noc3ncnc(NC4CCCCC4)c23)cc1 | inactive | –
18 | O=C(Cn1nc(C(F)(F)F)c2c1CCCC2)Nc1cccc(Cl)c1 | inconclusive: 14.1 µM [cytotoxic, single point] | –
19 | CCC(C)NC(=O)c1cc(Sc2cccc(Cl)c2)nc2ccccc12 (stereo not drawn) | inconclusive: 0.005 µM [cytotoxic, full curve, poor fit] | –
20 | Fc1ccc(CN2CCc3nc(N4CCN(c5ccccc5F)CC4)ncc3C2)c(F)c1 | inactive | –
21 | CCOC(=O)c1cnc2c(ccc3ccccc32)c1Nc1ccc(N(C)C)cc1 | inactive | –
22 | Cc1ccc(N(C)C(=O)c2sc3nc4n(c(=O)c3c2C)CCCC4)cc1C | inconclusive: 2.82 µM [cytotoxic, partial curve] | –
23 | Cc1ccc(CN(C(=O)c2ccc(OCC(C)C)cc2)c2ccccn2)o1 | inconclusive: 35.5 µM [cytotoxic, single point] | –

Row | SMILES | Potency | activity, negative = cell killing
24 | Cc1cc(Cl)ccc1NC(=O)CCCn1nc(C)c2c(C)n(-c3ccccc3)nc2c1=O | inactive | –
25 | Cc1cccc(OCCCn2c(CCNC(=O)C3CCCCC3)nc3ccccc32)c1 | inconclusive: 20 µM [cytotoxic, partial curve, poor fit] | –
26 | O=C(Nc1c2c(nc3ccccc13)CCCC2)c1ccccc1Br | inactive | –
27 | CC(=O)c1ccc(N2CCN(C(=S)Nc3cc(C)ccc3C)CC2)cc1 | inactive | –
28 | COc1ccc(OC)c(NC(=O)CC(=O)Nc2ccc3nc4n(c(=O)c3c2)CCCCC4)c1 | inconclusive: 0.0251 µM [cytotoxic, full curve] | –
29 | COC(=O)CC(=O)CSc1nc2cc(C(=O)NCC(C)C)ccc2c(=O)n1CCc1ccccc1 | inconclusive: 31.6 µM [cytotoxic, partial curve] | –
30 | COc1cccc(N2CCN(c3ncnc4c3c(-c3ccccc3)cn4-c3cccc(C(F)(F)F)c3)CC2)c1 | inactive | –
31 | Cc1ccc(NC(=O)c2ccc3snnc3c2)cc1C | inconclusive: 10 µM [cytotoxic, partial curve] | –
32 | CCOc1ccc(NC(=O)c2cnccn2)cc1 | inconclusive: 8.91 µM [cytotoxic, partial curve, poor fit] | –
33 | CCc1ccc(/C=C(/C#N)c2nc(-c3ccc(C)cc3)cs2)cc1 | – | inconclusive: -30.7% [cytotoxic]
34 | Cc1nn(Cc2ccc(Cl)cc2Cl)c(C)c1NC(=O)C1C2CCC(O2)C1C(=O)O (stereo not drawn) | inactive | –
35 | O=C(C1CC1)N1CCc2cc(Br)cc(S(=O)(=O)Nc3ccc(F)c(F)c3)c21 | active: 12.6 µM | –
36 | O=C(NCCc1ccccc1)C1CCN(c2nc3ccccc3nc2C(F)(F)F)CC1 | inconclusive: 0.0794 µM [cytotoxic, full curve, poor fit] | –
37 | FC(F)(F)c1cc(Nc2nc3ccccc3c3nncn23)ccc1Cl | inconclusive: 31.6 µM [cytotoxic, single point] | –
38 | Cc1ccc(C(=O)Nc2ccc(C(=O)O)cc2)cc1S(=O)(=O)N1CCC(C)CC1 | inactive | –
39 | Cc1cccc(CN2CCN(CC(=O)NCCc3ccc(Cl)cc3)C2=O)c1 | inactive | –
40 | COc1ccc(NC(=O)c2c(NC(=O)COc3ccccc3)sc3c2CCCCC3)cc1 | inactive | –
41 | CCCn1c(=O)c2sccc2n2c(CCCC(=O)N3CCN(c4cccc(Cl)c4)CC3)nnc12 | inconclusive: 35.5 µM [cytotoxic, single point] | –
42 | CC1CCC(NC(=O)C2(C)Cc3ccccc3C(=O)N2Cc2ccc(Cl)cc2)CC1 (stereo not drawn) | inconclusive: 31.6 µM [cytotoxic, single point] | –
43 | CC(C)c1ccc(CNc2nc(-c3ccco3)nn2S(=O)(=O)c2ccc(F)cc2)cc1 | inconclusive: 17.8 µM [cytotoxic, single point] | –
44 | CCOc1ccc(OCC)c(NC(=O)c2cc3ccccn3n2)c1 | inactive | –
45 | COc1ccc(-c2cnc(C)o2)cc1S(=O)(=O)Nc1ccc(OC(F)(F)F)cc1 | inconclusive: 35.5 µM [cytotoxic, single point] | –
46 | Cc1ccc(C)c(N2CCN(CCCNC(=O)c3cnn(-c4ccc(F)cc4)c3C3CCN(C(=O)OC(C)(C)C)CC3)CC2)c1 | active: 25.1 µM | –

Row | SMILES | Potency | activity, negative = cell killing
47 | Cc1ccc(CNC(=O)Cc2csc3ccccc23)cc1 | inactive | –
48 | COc1ccc(C(=O)CC2(O)C(=O)N(Cc3cccc(C(F)(F)F)c3)c3ccccc32)cc1 (stereo not drawn) | inconclusive: 12.6 µM [cytotoxic, single point] | –
49 | CCOc1c(Br)cc(C2CC(=O)Nc3cc4c(cc32)OCO4)cc1OC (stereo not drawn) | inconclusive: 31.6 µM [cytotoxic, single point] | –
50 | NC1=NC(c2cccc(Cl)c2)n2c(nc3ccccc32)N1 (stereo not drawn) | inconclusive: 31.6 µM [cytotoxic, single point] | –
51 | CCCS(=O)(=O)Nc1cccc(-c2cn3ccc(C)cc3n2)c1 | inconclusive: 15.8 µM [cytotoxic, single point] | –
52 | Cc1cccc(OC(=O)c2cc(-c3ccc(C)c(C)c3)on2)c1 | inconclusive: 31.6 µM [cytotoxic, single point] | –
53 | Nc1nc2ccc(-c3nc4ccccc4o3)cc2s1 | inconclusive: 12.6 µM [cytotoxic, single point] | –
54 | COCCNc1nc(NCc2cccc(Cl)c2)c2cnn(C)c2n1 | inactive | –
55 | COc1ccc(/C=C/C(=O)Nc2ccc3nc(N4CCC(C)CC4)cc(C)c3c2)cc1 | inactive | –
56 | CCN(CC)C(=O)CSc1nc(-c2ccc(C)cc2)nc2c1Cc1c(CO)cnc(C)c1O2 | inactive | –
57 | CC1=C(c2ccc(C(C)C)cc2)S(=O)(=O)N=C1N1CCC(C(=O)NCCc2ccco2)CC1 | inactive | –
58 | Cc1ccc(CN(Cc2ccco2)C(=O)COc2ccc(C)c(C)c2)cc1 | inactive | –
59 | CCc1ccc(S(=O)(=O)Nc2cccc(-c3ccc(N4CCOCC4)nn3)c2)cc1 | inconclusive: 22.4 µM [cytotoxic, single point] | –
60 | CC(C)(C)c1ccc(C(=O)Nc2onc3c2CCCC3)cc1 | inconclusive: 6.31 µM [cytotoxic, partial curve] | –
61 | CCCCS(=O)(=O)c1oc(-c2ccc(F)cc2)nc1S(=O)(=O)c1ccc(C)cc1 | inconclusive: 3.16 µM [cytotoxic, single point] | –
62 | Cc1sc(-c2cc3c([nH]c2=O)CC(c2ccccc2)CC3=O)nc1-c1ccc(Cl)cc1 (stereo not drawn) | inconclusive: 0.708 µM [cytotoxic, full curve] | –
63 | COc1ccccc1NC(=O)COc1ccc(-c2nn(C)c(=O)c3ccccc23)cc1 | inconclusive: 0.251 µM [cytotoxic, partial curve] | –
64 | CCCCN1C(=O)C(O)(CC(=O)c2ccc(C)cc2C)c2cc(Br)ccc21 (stereo not drawn) | inconclusive: 14.1 µM [cytotoxic, partial curve] | –
65 | Cc1ccc2[nH]c(=O)c3cc(C(=O)NCCCN4CCC(C)CC4)sc3c2c1 | inconclusive: 22.4 µM [cytotoxic, single point] | –
66 | COc1ccc(Nc2ncnc3c2nc2n3CCCCC2)cc1 | inconclusive: 12.6 µM [cytotoxic, partial curve, poor fit] | –
67 | COc1ccc(F)cc1S(=O)(=O)Nc1cccc(-c2ccc(N3CCC(C)CC3)nn2)c1 | inconclusive: 12.6 µM [cytotoxic, partial curve] | –
68 | O=c1c2oc3ccccc3c2n(Cc2ccccc2)c(=O)n1Cc1ccc2c(c1)OCO2 | inconclusive: 0.02 µM [cytotoxic, full curve, poor fit] | –
